The source of these data is the RNAGym collection of RNA variant scans (doi:10.7554/elife.90254).

Read counts are not given, so values of variants with three or more changes are uncertain.

The labels stand for the following.
B1: LINE1-mini (parent)
chain: GGCAGAGCUCAACACAGCGUGGCAAAGUGGCUGUGGCUAGACUGCC

Variants of B1 are the subject of this data set. Kind of data set: self-cleavage, relative activity (ratio to wild type); higher = more cleavage; in vitro, sequencing; the parent is a self-cleaving ribozyme.
Turning to GGCAGAGAUCAAUACAGAGUGGCAAAGUGGCUGUGGCUAGCCUGCC [C8A C13U C18A A41C], the self-cleavage came out at 0.17.
Consider GGCAGAGAUCAACACGGCAUGGCAAAGUGGCUGUGGCUAGACUCCC [C8A A16G G19A G44C], for which the self-cleavage amounted to 0.18.
With GGCAGAGAUCAACACAGGGUGGAAAAGUGGCUGUGGCUAGACUGCC [C8A C18G C23A], the self-cleavage came to 0.55.
In the case of GGCAGAGAUAAACACAGCGUGGCAAAGUGGCUGUGGCUAGACAGCC [C8A C10A U43A], the self-cleavage was found to be 0.04.
Next, GGCAGAGAUCAACACAGCGUGGCAGAGUGGCUGUGGCUAGACUGUC [C8A A25G C45U]: 0.38.
As for GGCAGAGAUCACCACAGCGUGGCAAAGUGGCUGUGGCUAUACUGCC [C8A A12C G40U], the self-cleavage is 0.02.
As to GGCAGAGAUCAACAGAGCGUGGCAGAGUGGCUGUGGCUAGACUGCC [C8A C15G A25G], the self-cleavage worked out at 0.2.
In the case of GGCAGAUCUCAACACAGCGUGGCAAAGUGGCGGUUGCGAGUCUGCC [G7U U32G G35U U38G A41U], the self-cleavage amounted to 0.01.
Next, GGCAGAGAUCAACACAGCGUGGCAACGUGGCUGCGGCUAGACUGCC [C8A A26C U34C]: 0.01; GGCAGAGAUAAACACAGCGUGGCAAAGUGGCUGUGGCUAGCCAGCU [C8A C10A A41C U43A C46U]: 0.02; GGCAGAGAUUAAGACAACGUGGCAAAGUGACUGUGGAUAGACUGCC [C8A C10U C13G G17A G30A C37A]: 0.04.
In the case of GGCAGAGAUCAACACAGGGUGACAAAAUGGCUGUGGAUAGACUGCG [C8A C18G G22A G27A C37A C46G], the self-cleavage turned out to be 0.06.
For GGCAGAGAUCAAAACAGCGUGGCAAAGUGCCUGUGGCUAGAGUGCC [C8A C13A G30C C42G] the value was 0.13.
As to GGCAGAGAUCAACACAGCGUGGCAAAGUGGCUGUGGCUGCAUUGCC [C8A A39G G40C C42U], the self-cleavage is 0.08.
Turning to GGCAGAGAUCAACACAGCGUGGCUAAGUGGCUUUGGCUAGACUGCC [C8A A24U G33U], the self-cleavage was 0.07.
Turning to GGCAGAGAUAAACACAGGGUGGCAAAGUGGAUGAGGCUAGACUGCC [C8A C10A C18G C31A U34A], the self-cleavage turned out to be 0.03.
Next, GGCAGAGAUCAGCACAGCGUGGCAAAGUGGCUGUGUCUAGACUGCC [C8A A12G G36U]: 0.07.
Next, GGCAGAGAUCCACACAGCAUGGCAAAGUGCCUGUGGCUAGACUGCC [C8A A11C G19A G30C]: 0; GGCAGAGAUCAUCACAGCGUUGCAAAGUGGCUGUGGAUAGACUGCC [C8A A12U G21U C37A]: 0.04.
In the case of GGCAGAGAUCAACGCAGCGUGGCAAAGUGGCUGUGGCUAGAAUGCC [C8A A14G C42A], the self-cleavage is 0.25.
For GGCAGAUCCUAACACAGCGUGGCAAAGUGGCUGUGGCUAGACUAGC [G7U U9C C10U G44A C45G] the value was 0.01; for GGCAGAGAUAACCACAGCGUGGCAAAGUGGCUUUUGCUAGACUGCC [C8A C10A A12C G33U G35U], 0; for GGCAGAGAUCCACACAGCGUGCCAUAGUGGCUGUGGCUAGACUGCC [C8A A11C G22C A25U], 0.03.
For GGCAGAGAUCAACACAGCGUGGCAACGUGGCUGUUGCUAGACUACC [C8A A26C G35U G44A], the self-cleavage is 0.01.
Turning to GGCAGAGAUCAAAAUAGCGUGGCAAAGUGGCUCUGGCUAGACUGCC [C8A C13A C15U G33C], the self-cleavage was 0.18.
For the variant GGCAGAGAUUUAAACAGCAUGACAAAGUGGCUGUGGCUAGACUGCC [C8A C10U A11U C13A G19A G22A], the self-cleavage worked out at 0.02.
In the case of GGCAGAGAUCAACAGAUCGUGGCAAAGUGGCUGUGGCUAUACUGCC [C8A C15G G17U G40U], the self-cleavage came out at 0.05.
With GGCAGAGAUCAACGCAGCUUGGCAAAGUGGCUGUGGCUAGAUUGCC [C8A A14G G19U C42U], the self-cleavage was 0.12.
Regarding GGCAGAGAUCAACAGAGCGUGACAAAGUGGCUGUGGCUAGAUUGCA [C8A C15G G22A C42U C46A], the self-cleavage turned out to be 0.04.
Turning to GGCAGAGAUUCACACAGCGUGGCAAGGUGGCUGUGGAUGGACUGCC [C8A C10U A11C A26G C37A A39G], the self-cleavage is 0.01.
As for GGCAGAGAUCAACACAGCGUGGCAAAGUGGCUGUGGCUGGAAUGCC [C8A A39G C42A], the self-cleavage was determined as 0.56.
Consider GGCAGAGAUCAACACAGUGUGGAAAGCUGGCUCUGGCUAGACUGCC [C8A C18U C23A A26G G27C G33C], for which the self-cleavage is 0.03.
As to GGCAGAUCCCAACACAGCGUGGCAAUGUGGCUCUGGCUAGACUGCC [G7U U9C A26U G33C], the self-cleavage came out at 0.02.
Regarding GGCAGAGAUAAACACAGCGUGGCAAAGUGGCAGUGGCUAGACUGCC [C8A C10A U32A], the self-cleavage came to 0.01.
Take GGCAGAGAUCACCUCAGAGUGGCCAAGUGGCUGUGGCUAGACUGCC [C8A A12C A14U C18A A24C]: the self-cleavage was determined as 0.06.
For GGCAGAUCUCAACACAGCGUGGCAAAGUGGCAGUGUCUCGACUGCC [G7U U32A G36U A39C], the self-cleavage amounted to 0.12.
Turning to GGCAGAGAUCAACAGAGCGUGGCAAAGUGGAUGUGGCUAGACUGCC [C8A C15G C31A], the self-cleavage is 0.03.
Next, GGCAGAUCUCAACACAGCGUGGCAAAGUGGCAGUGGGUUGACUGCC [G7U U32A C37G A39U]: 0.03; GGCAGAGAUCAACACAGCGUGGCAUAGGGGCUGUGGCUAGACUGCC [C8A A25U U28G]: 0.15.
For the variant GGCAGAGAUGAACACAACGUGGCAAACUGGCUGUGGCUAGACUGCC [C8A C10G G17A G27C], the self-cleavage came out at 0.
Regarding GGCAGAGAUCAAUACAGCGUGGCAAACUGGCUGUGGCUAGAUUGCC [C8A C13U G27C C42U], the self-cleavage worked out at 0.16.
Consider GGCAGAUCUCAACACAGCGUGGCAAAGUGGCGGUGGCUAGACUCCG [G7U U32G G44C C46G], for which the self-cleavage was found to be 0.03.
Turning to GGCAGAGAUCAAAGCAACGAGGCAAAGUGGCUGUGGCUAGACUGUC [C8A C13A A14G G17A U20A C45U], the self-cleavage is 0.02.
Turning to GGCAGAUCUCAACACAGCGCGGAAAAGUGGCUGUGGCUAGACUGCC [G7U U20C C23A], the self-cleavage was 0.
GGCAGAGAUCUACACGGCGUGGCAAAGUGGCUGUGGCUAGACUGCC [C8A A11U A16G]: the self-cleavage is 0.04.
For GGCAGAGAUCAAGACAGCGCGGCAAAUUAGCUGUGGCUAGACUGCC [C8A C13G U20C G27U G29A], the self-cleavage stood at 0.28.
Take GGCAGAGAUAAACACAGCGUGGCAAAGGGGCUGGUCCUCAACUGCC [C8A C10A U28G U34G G35U G36C A39C G40A]: the self-cleavage came to 0.04.
Consider GGCAGAUCUCAACACAGCGCGGCAAAGUGGCUGUGGCUAGACUGAC [G7U U20C C45A], for which the self-cleavage was determined as 0.05.
For GGCAGAGAUCAACUCAGCGUUGCAAAGUGGCUGUGGCCAGACUGCC [C8A A14U G21U U38C] the value was 0.07; for GGCAGAGAUCGACAAAUCGUGGCAGAGUGGCUGUGGCUAGACUGCC [C8A A11G C15A G17U A25G], 0.02; for GGCAGAGAUCAACGCAGCGUGGCAAAGUGUUUGUGGCUAGACUGCG [C8A A14G G30U C31U C46G], 0.02.
Next, GGCAGAGAUCCACACAGCGUGGCAAAGUGGCUGUGGCUAGACUUCC [C8A A11C G44U]: 0.02.
As to GGCAGAGAUCAGCCCACCGUGGCAAAGUGGCUUUGGCUAGACUGCC [C8A A12G A14C G17C G33U], the self-cleavage is 0.24.
Regarding GGCAGAGAUCAACACUGCAAGGCAAAGUGGCUGUGGCUAGACUGCC [C8A A16U G19A U20A], the self-cleavage amounted to 0.04.
Next, GGCAGAUCCCAACACAGCGUGGCAAAGUGGCUGUUGCUCGACUGCC [G7U U9C G35U A39C]: 0.08; GGCAGAUCUCAACACAGCGUGGCAAAGUGGCGGUGGCAAGACUGCC [G7U U32G U38A]: 0.06.
